Experimental data from the RNAGym collection of RNA variant scans (doi:10.1093/nar/gkz1192).
The source gives no read counts; variants with many changes may rest on few reads.

B1: CPEB3 Ribozyme (parent)
chain: UAACAGGGGGCCACAGCAGAAGCGUUCACGUCGCAGCCCCUGUCAGAUUCUGGUGAAUCUGCGAAUUCUGCUGUAUAUCUC

Variants of: B1
Experiment: self-cleavage, relative activity (ratio to wild type); higher = more cleavage; in vitro, sequencing
Method in brief: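 CPEB3 self-cleaving ribozyme mutant libraries were made by rounds of error-prone PCR, barcoded, and transcribed in vitro with T7 RNA polymerase for 5 hours at 37°C. Cleavage occurred during transcription and a 15 min DNase I step before EDTA stop. RNAs were reverse transcribed with template switching and Illumina-sequenced, with DNA sequencing mapping barcodes to variants. Relative activity is the variant's cleaved/total read fraction divided by wild type's (minimum 5 reads), averaged across three batches.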

Row | Variant | self-cleavage
1 | G8A U43C A75G | 0.12
2 | G8A U48C A64U U67A U69C A77U | 0.03
3 | G8A U69G U80A | 0.16
4 | G8C A28G U31C | 0.06
5 | G8C A15G U25A C37A U60C U67C U74C | 0.12
6 | G8C U69A U76C | 0.24
7 | G8A U58C U60C U72C | 0.13
8 | G8A U43A U49C A56U | 0.16
9 | G8C U26C A45G A56G U60A U72C G73C | 0.02
10 | G8C G30C G52U | 0.14
11 | G8A U26A U51A A77G | 0.06
12 | G8C U26C A28G A57U U69A G73U | 0.29
13 | G8C C38U U58C | 0.22
14 | G8C A20G U26C U41A G42C U54A U72A | 0.04
15 | G8C U72C A77U | 0.1
16 | G8C U26A U31C U48C U51C U80C | 0.14
17 | G8C C29U U41C U54G A56U U67C | 0.11
18 | G8A U74C A75G | 0.32
19 | G8C U26C G42A U80C C81U | 0.06
20 | G8A U48C U72C | 0.06
21 | G8C A21G U31G U43A A57G U69C U80C | 0

Row | Variant | self-cleavage
22 | G8A U31C U41C G42C U51C U60A | 0
23 | G8C G33C A35G A45U A56G A57G | 0.05
24 | G8A U31C A47U U67G | 0.09
25 | G8C A64G U74C | 0.14
26 | G8A U31A U41C U76C | 0.18
27 | G8A U25C U43A U69C | 0.05
28 | G8C A45U U72A | 0.28
29 | G8A U43C A56G A64U U72C | 0.05
30 | G8C A13U A15C A47G A64U U67C | 0.06
31 | G8A U41A A77U U80C | 0.08
32 | G8C A18G G19C U43A U69C | 0.06
33 | G8A U48A U49C | 0.03
34 | G8C U43A A64C A75U | 0.04
35 | G8A U26C A47U | 0.04
36 | G8A U26C A47G | 0.22
37 | G8A U67A U80A | 0.2
38 | G8C A13G U51A | 0.43
39 | G8C U48C G73U | 0.1
40 | G8A U60A U72A | 0.06
41 | G8C A13G U58A | 0.24
42 | G8A U48A U54A U69A U76A | 0.05

Row | Variant | self-cleavage
43 | G8U A13G A45C A57G | 0.06
44 | G8A U49C C59A U76C | 0.15
45 | G8A U51A A65G | 0.13
46 | G8C A13U U31C C44A | 0.17
47 | G8C U69A U80G | 0.27
48 | G8U A13U A21G U41C U54A | 0.05
49 | G8C A18U G19C A20G U31C U67C U69A | 0.23
50 | G8C A20U U26C | 0.19
51 | G8A U31C C62A A64G | 0.32
52 | G8A U25C U41A U66C U80C | 0.08
53 | G8A U25C U51C | 0.17
54 | G8C G52U A56U U67G | 0.07
55 | G8A U60C U80A | 0.47
56 | G8U A13U A35G U49A G73U | 0.09
57 | G8C U26C U54C | 0.05
58 | G8A U26C A35G U48C U69C | 0.06
59 | G8A U26C U60C U66G | 0.04
60 | G8A U54A U67C A75G U80G | 0.03
61 | G8U A13G C17U C32G A45G | 0.06
62 | G8A U76C U80A | 0.08
63 | G8U A13G U41C U51A | 0.24

Row | Variant | self-cleavage
64 | G8A U31C U41A U58C U69A U78C | 0.09
65 | G8A U25C U43A U60A | 0.06
66 | G8A U54C A64U U66C A77G | 0.42
67 | G8A U60A U67C U72A | 0.1
68 | G8A U31C A35U A56G | 0.05
69 | G8A U26A G30U U58C | 0.07
70 | G8C C39A U41A G42C | 0.41
71 | G8A U41C U67C U72A | 0.09
72 | G8C A18G G52U U72A | 0.05
73 | G8A U26A A28G | 0.06
74 | G8C C17G C27U A65G U72C | 0.12
75 | G8A U51C A57C U69C | 0.06
76 | G8A U54C C59A A64U G73C U80A | 0.04
77 | G8C A45G A75G | 0.06
78 | G8C A56G U60A | 0.07
79 | G8C A56G U58C U72C | 0.15
80 | G8A U26C C32A U41A G52U | 0.37
81 | G8C U48C U74G | 0.26
82 | G8C U41C A47G G73A | 0.1
83 | G8C A18U U25G A28G A75G | 0.05
84 | G8A U31G C38U A45U U78A | 0.04
